Reference: publication PMC12136788
The list shows a part of the results.

B1: chr20:64048168:64048962:-|CDS|ENSG00000203883|control|control|control (ssRNA)
RNA: GGGAGUUCUACAGUCCGACGAUCCCGCAAGAAGCAGGCGCGCAAGGCCCGGCGGCUGGAGCCCGGCCUCCUGCUCCCGGGAUUAGCGCCCCCGCAGCCACCGCCCGAGCCUUUCCCCGCGGCGUCUGGCUCGGCUCGCGCCUUCAACAGAGGAUUGAGCAUCA
B2: chr9:137030712:137031725:-|CDS|ENSG00000180549|control|control|control (ssRNA)
RNA: GGGAGUUCUACAGUCCGACGAUCCUGCCCCUGGCCCAGCGGCCGCGAGGGCAGCCCUGGGUGUGGGCCUCCAUGGAGUCUCCUAGCCACACCCACGGCCUCAGCCACCUCCGAGGCAUCUUCAACUGGGUGCUGAGCUACCGGCAACAGAGGAUUGAGCAUCA
B3: ENSG00000135632:stop:overlap|stop_codon|ENSG00000135632|stop_codon|NA|stop_codon (ssRNA)
RNA: GGGAGUUCUACAGUCCGACGAUCAACGGCCCCUGGUGGCUGCACAGUUUCUCUGGAAUGCACUUUAUCGCUACCGAGGGCACUAGAGAAGGCAGAGGAGAAUGCCCAGAGGCUGACCGGGAAACCAGGCCAGGUUCUGCCUCACAACAGAGGAUUGAGCAUCA
B4: chr17:58089832:58089920:+|3pUTR|ENSG00000264364|msi1_unk|FALSE|overlapping (ssRNA)
RNA: GGGAGUUCUACAGUCCGACGAUCAUUCCACUGAACUGUGAUUCUAUGGCUUGGGGCGGAGGGUGGGGUGGGGAUGCCUUCUUUAGGGGCCCUGAGAUGUGUUUGUCUGUGGUGUGUGGGAGUGGGGAGCAGAUUUGUCUUGCUCAACAGAGGAUUGAGCAUCA
B5: chr6:109001311:109001429:-|CDS|ENSG00000080546|unk|total|mutant (ssRNA)
RNA: GGGAGUUCUACAGUCCGACGAUCUGCUGCUUUGGGCCGUUUGGAUAACAUUACGUCCGUGAUGGUUUUCCACCCACAAUAUUCCGAAAGUUUCUUAAAAACUCAGCACUAUCUACUGCAAAUGGAUGGGCCGUUACCCCUACACAACAGAGGAUUGAGCAUCA
B6: chr8:94436494:94436868:-|CDS|ENSG00000265817|control|control|control (ssRNA)
RNA: GGGAGUUCUACAGUCCGACGAUCAAUAGUAGAAAAGAAUAGAUGUUGGGAUAUCAUAGCAGUUAACUAUAAUGCAAUUGGAGUAGACCGCCCUCCUCGAACAGCACAGGGCCUACGCACCCUUUAUAAAAGGCUCAAAGAAUACAACAGAGGAUUGAGCAUCA
B7: chr20:3868059:3868160:+|3pUTR|ENSG00000088888|unk|FALSE|bound_elsewhere (ssRNA)
RNA: GGGAGUUCUACAGUCCGACGAUCUCAGCCUCCAGGGAUCUACACCCUGCCUUGGCUGCUACAGCUUUUUCACUCCACUGCCCUAGGGGAGUUCAGCAACCUAAUGAUCUCUAUCUCUGAACAUCUCUUCAUCCCAUGCUCCAACAACAGAGGAUUGAGCAUCA
B8: chr1:54031757:54031935:-|3pUTR|ENSG00000116209|msi1|FALSE|unique (ssRNA)
RNA: GGGAGUUCUACAGUCCGACGAUCUUAGCUAUGAGCUGAUCAUUGCUCCUUCUCACCUCCUGCCAUGAUACUGUCAGUUACCUUAGUUAACAAGCUGAAUAUUUAGUAGAAAUGAUGCUUCUGCUCAGGAAUGGCCCACAAAUCCAACAGAGGAUUGAGCAUCA
B9: chr12:3284029:3284272:+|3pUTR|ENSG00000011105|msi1|total|mutant (ssRNA)
RNA: GGGAGUUCUACAGUCCGACGAUCCAUGUGGGUAUUCCCACAACAGGUUCUGCACACCCCAGUUAUUUCACAGACAUUCCUGCCCGAAACUGUCAGACAAAUACCUCUCCCGUUCGGAUGCUGCUCACUUUCCCCCUUGCUUCUCAACAGAGGAUUGAGCAUCA
B10: chr12:48342538:48342639:-|3pUTR|ENSG00000167528|unk|total|mutant (ssRNA)
RNA: GGGAGUUCUACAGUCCGACGAUCUUGUUAAACAUUUUGAGUAUCACUCUUGCAUACUGUUACUAUUAUAUUUUCUCUAUAUACCGACAGAAAGGCCAUUUCCGAAUAUUAAAGGCUCUGAAAAUUUCUGCAGCCGACCCAACUCAACAGAGGAUUGAGCAUCA
B11: chr10:88913158:88913259:+|CDS|ENSG00000138134|unk|total|mutant (ssRNA)
RNA: GGGAGUUCUACAGUCCGACGAUCGCAUCAGAGAUUGACCGAGGCAGAAAGGAAGCGGAUUGCUCAGAUGCGCCAGCAGCAGCCCGAAUCGGAGCAGUUUCUGUUUUUCGAAGAUCAACUCAAGAAGCAAGAGUCCGCCCGAGGCAACAGAGGAUUGAGCAUCA
B12: chr15:48878618:48878734:+|CDS|ENSG00000255302|unk|total|mutant (ssRNA)
RNA: GGGAGUUCUACAGUCCGACGAUCAGAACCAGCCCUGGAUGGCGGGUUUCAGAUGCAUUAUGAGAAGACCCCGUUUGAUCAGUCCGCUUUUAUCGAAGAGCUUUUUUCACUGAUGGUUGUCAAUCGUCUGACCGAAGAACUCGGCAACAGAGGAUUGAGCAUCA
B13: chr7:29923496:29923595:-|3pUTR|ENSG00000136193|msi1_unk|total|mutant (ssRNA)
RNA: GGGAGUUCUACAGUCCGACGAUCUCACAGUGCCGAGUUGGCGGGAAAAGCAAAUUCUUUUGAAGUCUCCGUCUUUCCCUCAGCCGCGGUUUCUUUCAGGUUAACAAGAGGCAUUUGUGCACACACACAGGGCUCUUGUGUGUGCAACAGAGGAUUGAGCAUCA
B14: chr2:149026443:149026544:+|3pUTR|ENSG00000168280|msi1|total|mutant (ssRNA)
RNA: GGGAGUUCUACAGUCCGACGAUCGUAAAGUGUGUCCUGUGUACUGCAGAUGUGUGUUCUCUGGGCUUUAUGUAUCUGUACAGCCGCUUUCACAUUAAAAAAAUUGUGGACAAACUUGUCCGGGGGGUUUGAGGGGAGAAUGGUCAACAGAGGAUUGAGCAUCA
B15: chr22:32413844:32414425:-|three_prime_utr|ENSG00000184459|control|control|control (ssRNA)
RNA: GGGAGUUCUACAGUCCGACGAUCUGUAAACCCAGAAGGGAAAGACAGUACACACUGGAAUUGUAAAGCCCUUGUGAAUUGCUUAGGCAGAAAGUUUUCUUUCUUAAGCCUUCAGGAACCCAGAAUAAGGCAGACUCUGUUAAACAACAGAGGAUUGAGCAUCA
B16: ENSG00000070961:be:win_5551|3pUTR|ENSG00000070961|bound_else_gene|NA|bound_elsewhere_windowed (ssRNA)
RNA: GGGAGUUCUACAGUCCGACGAUCAAUUGUACAUUUAUUCAUCAGGUAUUUAUAGUGAAUCAUACUGUAAAAAAGAGGUAGCAUGAUAUGCUGGAAAGCAUAUUAGACUAGGAGUCAAGACCUGGUUUCUAGUCUUGGUUUUGCCAACAGAGGAUUGAGCAUCA
B17: chr12:89642165:89642281:-|CDS|ENSG00000070961|unk|FALSE|bound_elsewhere (ssRNA)
RNA: GGGAGUUCUACAGUCCGACGAUCGCCAAAAACCUUUCUUCAAUUAGUAUGGGAAGCAUUACAAGAUGUCACUUUAAUUAUAUUAGAAAUUGCAGCCAUAGUAUCAUUGGGCCUUUCUUUUUAUCAGCCUCCAGAAGGGGAUAACAACAGAGGAUUGAGCAUCA
B18: chr7:83961326:83961382:-|CDS_3pUTR|ENSG00000075213|msi1_unk|FALSE|overlapping (ssRNA)
RNA: GGGAGUUCUACAGUCCGACGAUCAAACAGGAGGACCCACGAAUUUGAGAGGGCACCCAGGAGUGUCUGAGCUGCAUUACCUCUAGAAACCUCAAACAAGUAGAAACUUGCCUAGACAAUAACUGGAAAAACAAAUGCAAUAUACAACAGAGGAUUGAGCAUCA
B19: chr14:53039561:53039662:-|3pUTR|ENSG00000100523|unk|total|mutant (ssRNA)
RNA: GGGAGUUCUACAGUCCGACGAUCUCAAACUAUAUUUUUGUUACAGCAAACUACAUUCCAUUUGCCUUUAAAUGCUUGCAUUUCCGUUAUUGUACUGGCUACCUGUUUUUGUCUGCCCAGCAUCCUGUUUCCCCUCCUUUUGGACAACAGAGGAUUGAGCAUCA
B20: chr4:83462471:83462902:-|CDS|ENSG00000163322|control|control|control (ssRNA)
RNA: GGGAGUUCUACAGUCCGACGAUCUUCAAGAGAUCUCGGUUGUUAGAUACACAAGACAAACGAUCUAAAGCAGAUACUGGUAGUAGUAACCAAGAUAAAGCAUCCAAAAUGAGCAGCCCAGAAACAGAUGAAGAAAUUGAAAAGCAACAGAGGAUUGAGCAUCA
B21: chr12:56204332:56204433:-|3pUTR|ENSG00000181852|unk|total|mutant (ssRNA)
RNA: GGGAGUUCUACAGUCCGACGAUCUUUUGCCUUUCUCUCACCUUAAUUCCCUUUCUUCCUUACUUUGUUACCUACCCUUAUCUCCGUGCUAACUUCUCUUUCAGGAGGAUGUCUGGGAGCCGUGUGCACUUCACAGCUGCUUUCCAACAGAGGAUUGAGCAUCA
B22: chrX:119243474:119243703:+|3pUTR|ENSG00000101856|msi1|FALSE|unique (ssRNA)
RNA: GGGAGUUCUACAGUCCGACGAUCGGUAUUUCCCAAAACAGGUAAAAAUCUUAAAUGUGCACCAAGAGCAAAGGAUCAACUUUUAGUCAUGAUGUUCUGUAAAGACAACAAAUCCCUUUUUUUUUCUCAAUUGACUUAACUGCACAACAGAGGAUUGAGCAUCA

Biological target: MSI1 full-length (mouse, UniProt Q61474 1-362)
Assay: nsRBNS (natural sequence RNA bind-n-seq); RBNS binding buffer (assumed for nsRBNS): 25 mM Tris pH 7.5, 150 mM KCl, 3 mM MgCl2, 0.01% Triton X-100, 500 ug/ml BSA, 20 U/ml SUPERase-In, 4 C; UNK is unkempt and MSI1 is Musashi-1; names of the RNAs are library labels; protein concentration not given here; high values mean tight binding

UniProt Q61474, sequence (Q61474 whole entry): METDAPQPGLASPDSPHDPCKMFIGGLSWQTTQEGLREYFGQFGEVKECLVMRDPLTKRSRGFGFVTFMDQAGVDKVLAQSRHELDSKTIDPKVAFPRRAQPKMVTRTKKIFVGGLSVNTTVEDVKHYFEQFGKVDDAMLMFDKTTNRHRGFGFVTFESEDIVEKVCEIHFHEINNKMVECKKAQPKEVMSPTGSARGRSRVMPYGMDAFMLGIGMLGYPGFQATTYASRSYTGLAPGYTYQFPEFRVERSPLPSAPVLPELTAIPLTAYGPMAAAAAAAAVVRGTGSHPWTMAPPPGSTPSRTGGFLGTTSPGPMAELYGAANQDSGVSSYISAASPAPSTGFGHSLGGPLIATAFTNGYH

| Binder | binding signal |
| --- | --- |
| B1 | 0.197 enrichment R |
| B2 | 0.372 enrichment R |
| B3 | 0.701 enrichment R |
| B4 | 0.975 enrichment R |
| B5 | 0.762 enrichment R |
| B6 | 28.2 enrichment R |
| B7 | 0.53 enrichment R |
| B8 | 7.16 enrichment R |
| B9 | 0.768 enrichment R |
| B10 | 1.27 enrichment R |
| B11 | 0.282 enrichment R |
| B12 | 0.578 enrichment R |
| B13 | 0.252 enrichment R |
| B14 | 0.49 enrichment R |
| B15 | 0.237 enrichment R |
| B16 | 1.11 enrichment R |
| B17 | 9.09 enrichment R |
| B18 | 0.665 enrichment R |
| B19 | 0.508 enrichment R |
| B20 | 1.88 enrichment R |
| B21 | 1 enrichment R |
| B22 | 0.595 enrichment R |
